# In the RNAGym collection of RNA variant scans (doi:10.7554/elife.90254):
# The source gives no read counts; variants with many changes may rest on few reads.
# B1: OR4K15 (parent)
# chain: GUUAACGGUCAUAGGCCAUGGAAACUAGGAGCACCAUUUCGCUGCCAGUGAAGAAAUGAACAAAGAAAAUCUGGGCCAGGCAGGCAUCAAAAGAAAUAGUCUUGCGCUCAACCAGAAAGUCUGUAAUCAUUUUAAGGGUA
# Variants of: B1
# Assay: self-cleavage, relative activity (ratio to wild type); higher = more cleavage; in vitro, sequencing; the parent is a self-cleaving ribozyme
row,Variant,self-cleavage
1,A23G A56G U97A A126G,1.36
2,A23G U37C A118G,1.03
3,A23G G41A A59G U72A A89U U120C U139C,0.02
4,A23G A110U A118U,0.43
5,A23G A62G A63G A118G A135U,1.69
6,A23G A55U A60G A95G A110G,0.1
7,A23G A68G G137A,1.99
8,A23G A24G U43C A60G,0.86
9,A22G U49C A62G,0.53
10,A23G A47U U130C,0.38
11,A22U A23G A24G U57C A67U U103C A117C,0.03
12,A23G G50U A67G A92G U127A,2.03
13,A22U U49A A116G,0.4
14,A23G U127G U131C,0.76
15,A23G G58U A60G A110G A140G,0.11
16,A23G U26C A55G,1.32
17,A23G U49C U70A A86G U108C A114G U124C,0.01
18,A23C G28A C85U U87C C121A U130C,0.4
19,A23G U39C A62G U131C,1.61
20,A22U G73U A89G,0.18
21,A23G A67G A129G G136A,1.29

row,Variant,self-cleavage
1,A23G A111U A117U,0.05
2,A23G A51G U72G,0.41
3,A23G A95G A114G A135U,1.14
4,A23G U87C A92G,0.97
5,A23G A91G U120C,0.76
6,A23G U37G A52G A82G,0.28
7,A23G A78G A96G,0.23
8,A23G A95G U122C,1.23
9,A22G U37C G115A,0.03
10,A22G U39C A59U A82G A91G,0.06
11,A22U A63G A110G,0.18
12,A23G U87C U130C,0.18
13,A23G A30G U39A A69G,1.6
14,A23G A59G A62G,0.94
15,A23G A52G A111G U132C,0.01
16,A23G A24G A54G A56G A86G U108C U120A G123A,0.04
17,A23G U43C A90G U127C,1.04
18,A23G A78G A82G A86G,0.09
19,A22U A60G A118U U122A,1.38
20,A23G G31A A111G,0.02
21,A23G U49C A66G,1.69

row,Variant,self-cleavage
1,A22G U102A A114G,0.12
2,A23G U37C A54G C109U,0.32
3,A22G U37C A47G A62U U102C,0.35
4,A23G A56G A86U U102C A126G,1.26
5,A23G U49C A63U U127C,0.95
6,A22U A56G A68G C128U,1.17
7,A23U A33U A56G A125U,1.32
8,A22G U26C A95G U120C,1.32
9,A23G A52G C81U A118G,0.41
10,A22G U26C A56G A114G,0.49
11,A23G A56G U132C,1.13
12,A23G A47G A125G,0.49
13,A23G A52U A92U,1.2
14,A23G U70C A95G U132C,1.3
15,A23G A47U A96G U108C A117G A140U,0.02
16,A23G A54G A60U A63G U70A,1.54
17,A22G U103C U131C,0.68
18,A23G A64G U87C U103C A118U,0.04
19,A23G A51U U57A U127C,1.09
20,A23G G53U A96G C107U,0.03
21,A22U U70C U100C U131C,2.37

row,Variant,self-cleavage
1,A23G A94G U139C,1.54
2,A23G A59G U87C,1.13
3,A23G A36U A116G U127C U130C,0.19
4,A22U U38C A78G U102A,0.07
5,A23G U57C A78U,0.23
6,A22U A52G A110U A126G,0.35
7,A23G G41A A56G A60G A111G,0.01
8,A22G U49A A78G U100G,0.25
9,A23G A36U A55G A118G U133C,1.81
10,A23G A60G A82U A86U A98G U127A U132C,0.03
11,A23C C85G A118U U131C,0.35
12,A23G A62G U103A,0.72
13,A22U A54G A91C A94G U103C,0.95
14,A23G U39A A69G,0.72
15,A23G A55G A60G,0.82
16,A22U A27G U38C U103C U132C,0.55
17,A22G U38A A47G A69C G137A,1.18
18,A23G A55G A82U A86U,0.27
19,A23G A51U A66G A90G,0.1
20,A23G A56G A89G A96G,0.3
